Measurements published in PubChem BioAssay AID686979 (National Center for Advancing Translational Sciences (NCATS), 2013).
Out of some 420,000 compounds screened, about 50,000 (12%) were called active. The shares of active, inactive and inconclusive entries below differ from those in the screen. The call rests on the fitted dose curve; in most records, active means well fitted inhibition curve with a large enough effect; inconclusive means small, poorly fitted or top-dose-only effect; inactive means flat fitted curve, though single readings scatter. No potency is given beside an inconclusive call; the fits are too rough.

assay: qHTS for Inhibitors of human tyrosyl-DNA phosphodiesterase 1 (TDP1): qHTS in cells in presence of CPT; conditions: chicken DT40 Tdp1-/-;hTDP1 cells + 20 nM CPT, ATP luminescence, 48 h; activity change, negative = growth inhibition: at 46.2 µM (top of the series) unless noted; further: nearly all actives have a fitted effect of over 55% in size
Procedure, shortened: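 Chicken DT40 Tdp1-/- cells stably complemented with human TDP1 were seeded at 400 cells/well in medium containing 20 nM camptothecin, exposed to pin-transferred compounds, and grown at 37 °C for at least 48 hr. Viability was read as ATP luminescence.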
On the % scale 0 is the no-effect control and ±100 the full control effect; potency means the concentration at half of the fitted maximal effect; tags describe the fitted curve by direction and shape.

| Compound | Potency | activity change, negative = growth inhibition |
| --- | --- | --- |
| Cc1ccc(NC(=O)c2ccc(S(=O)(=O)N3CCC(C)CC3)cc2)nc1 | inconclusive [inhibitor, partial curve] | – |
| COc1ccccc1-n1cnnc1SCC(=O)Nc1ncc(Cl)cc1Cl | inconclusive [inhibitor, single point] | – |
| Cc1ccc(C(=O)COc2ccccc2C(=O)Nc2ccccc2)cc1 | inconclusive [inhibitor, partial curve] | – |
| O=C(c1cc(COc2cccc(C(F)(F)F)c2)on1)N1C[C@@H]2CCC[C@H]1C2 | inconclusive [inhibitor, single point] | – |
| CCC(NC(=O)c1cc(COc2ccc(F)c(F)c2)on1)c1ccncc1 (stereo not drawn) | active: 20.6 µM | – |
| CCOC(=O)N1CCC(NC(=O)c2cnn(-c3ccc(C)cc3)c2-n2cccc2)CC1 | inconclusive [inhibitor, single point] | – |
| Cc1cccc(-c2nc3cc(NC(=O)c4ccc(OCC(C)C)cc4)ccc3o2)c1 | inconclusive [inhibitor, single point] | – |
| O=C(Nc1ccc(S(=O)(=O)N2CCCC2)cc1)c1ccc2c(=O)n3c(nc2c1)CCCCC3 | inconclusive [inhibitor, single point] | – |
| O=C(Nc1ccc2nc(SCCOc3ccccc3)sc2c1)c1ccco1 | inconclusive [inhibitor, single point] | – |
| Cc1ccsc1C(=O)N(c1nc2ccccc2s1)c1c(C)cccc1C | inconclusive [inhibitor, single point] | – |
| CCOc1ccc(NC(=O)NC(C)c2c(-n3cccc3)sc3c2CCN(CC)C3)cc1 (stereo not drawn) | active: 20.6 µM | – |
| COc1cccc(CCNC(=O)c2ccc(Cn3c(SCc4ccccc4)nc4cccnc43)cc2)c1 | inconclusive [inhibitor, single point] | – |
| COc1ccccc1NS(=O)(=O)NC(=O)c1c(C)[nH]c2ccccc12 | inactive | – |
| COc1cc(C2C3=C(COC3=O)Oc3cc4c(cc32)OCO4)cc(OC)c1O (stereo not drawn) | active: 0.146 µM | – |
| CCOc1ccc2nc3c(cc2c1)CN(CCOC)C(=NCCOC)S3 | inconclusive [inhibitor, single point] | – |
| O=C1[C@H](O)[C@@H](O)C(=O)N1Cc1ccccc1 | inactive | – |
| O=C(CN1C(=O)NC2(CCOc3ccccc32)C1=O)Nc1ccc2c(c1)OCCO2 (stereo not drawn) | inactive | – |
| CCN(C(=O)COC(=O)/C=C/c1ccc(S(=O)(=O)N2CCc3ccccc32)cc1)C1CCS(=O)(=O)C1 (stereo not drawn) | inconclusive [inhibitor, partial curve, poor fit] | – |
| COc1ccc(N(C)C(=O)C2CCCN2S(=O)(=O)c2cccc3nsnc23)c(OC)c1 (stereo not drawn) | inactive | – |
| CCOC(=O)NC1(NCc2ccccc2)Oc2ccccc2O1 | inconclusive [inhibitor, single point] | – |
| COc1ccc(C(=O)Nn2c(SCC(=O)NCc3ccco3)nc3ccccc3c2=O)cc1 | inactive | – |
| CN(C)S(=O)(=O)c1cccc(COC(=O)c2ccc(Cl)cc2O)c1 | inconclusive [inhibitor, single point] | – |
| CCOc1ccc(N(CC(=O)NCCSCc2ccccc2Cl)S(C)(=O)=O)cc1 | inconclusive [inhibitor, single point] | – |
| Cn1nnnc1SCC(=O)Nc1cc(S(=O)(=O)N2CCCCC2)ccc1Cl | active: 18.4 µM | – |
| CCOC(CNC(=O)Cn1nc(C)c2ccccc21)OCC | inactive | – |

| Compound | Potency | activity change, negative = growth inhibition |
| --- | --- | --- |
| COc1ccc(CNC(=O)COC(=O)CCCOc2ccc(Cl)cc2Cl)cc1 | inactive | – |
| C/C(=N/NC(=O)c1cc2ccccc2cc1O)C1C(=O)c2ccccc2C1=O | inactive | – |
| Cc1cccnc1NC(=O)c1ccc(Cl)c(S(=O)(=O)N2CCCCC2)c1 | inactive | – |
| Cc1ccccc1NC(=O)C1CCN(C(=O)c2ccc(F)cc2)CC1 | inactive | – |
| COc1cc2c(cc1OC)CN(c1ccc(C(F)(F)F)cn1)CC2 | inconclusive [inhibitor, single point] | – |
| CCOc1ccc(Nc2nc(N)c([N+](=O)[O-])c(N3CCN(CC)CC3)n2)cc1 | inconclusive [inhibitor, partial curve] | – |
| COC(=O)C1(C(=O)OC)C[C@H](/C=C/c2ccccc2)N(Cc2ccccc2OC)[C@@H]1c1cccc(Br)c1 | inconclusive [inhibitor, single point] | – |
| COc1ccc(/C=N/NS(=O)(=O)c2ccc(F)cc2)cc1CN1CCSCC1 | inconclusive [inhibitor, single point] | – |
| CCOc1ccc(N/C=C/C(=O)c2ccc(OC)c(OC)c2)cc1 | inconclusive [inhibitor, single point] | – |
| O=C(Cc1cccs1)Nc1nc(-c2ccc(F)cc2F)cs1 | active: 10.3 µM | – |
| CC1(C(=O)NS(=O)(=O)c2ccccc2C(F)(F)F)CCN1C(=O)COc1ccc(Cl)cc1 (stereo not drawn) | inactive | – |
| COc1ccc([N+](=O)[O-])cc1NC(=O)C(C)N1CCCC1 (stereo not drawn) | inactive | – |
| Cc1ccc(C)c(Nc2nn3c(=O)c4ccc(C(=O)NCCC5=CCCCC5)cc4nc3s2)c1 | active: 6.51 µM | – |
| O=C(Nc1ccc2nc(-c3cccs3)[nH]c2c1)c1ccco1 | inconclusive [inhibitor, single point] | – |
| O=C(CCSc1ccccc1)Nc1nnc(-c2cccs2)o1 | inactive | – |
| COC(=O)c1c(C(=O)OC)n(CCCN)c2ccc(C)cc12 | active: 23.1 µM | – |
| COc1ccc(CC2SC(=Nc3ccc(F)cc3)NC2=O)cc1 (stereo not drawn) | inactive | – |
| Cc1ccc(CNn2cnnc2SCc2ccc(F)cc2)cc1 | inconclusive [inhibitor, single point] | – |
| Cc1cc2c(C)c(C)c(=O)[nH]c2cc1N | – | inconclusive: -30.3% [inhibitor] |
| CCOC(=O)C1=CC[C@@H](c2ccncc2)N(S(=O)(=O)c2ccc(C)cc2)C1 | inconclusive [inhibitor, single point] | – |
| O=c1[nH]cc(C(F)(F)F)cc1NS(=O)(=O)c1ccccc1[N+](=O)[O-] | inactive | – |
| O=C(CCc1ccccc1)N(Cc1cccnc1)c1nc2c(F)cc(F)cc2s1 | inconclusive [inhibitor, single point] | – |
| CCOc1ccc(OCc2ccc(C(=O)Nc3cc(OC)c(OC)c(OC)c3)o2)cc1 | inconclusive [inhibitor, partial curve] | – |
| Cc1nc2ncnn2c(N2CCCC(C(=O)Nc3ccc4c(c3)CCC4)C2)c1C (stereo not drawn) | active: 20.6 µM | – |
| COCCN(C(=O)COC(=O)/C=C/c1ccccc1Cl)c1c(N)n(Cc2ccccc2)c(=O)[nH]c1=O | inconclusive [inhibitor, single point] | – |

| Compound | Potency | activity change, negative = growth inhibition |
| --- | --- | --- |
| CN(Cc1ccccc1)C(=O)c1[nH]cnc1C(=O)N[C@@H](CCCCNC(=O)OC(C)(C)C)C(=O)OC(C)(C)C | active: 16.4 µM | – |
| CCN(C(=O)CSc1ncn[nH]1)c1cccc2ccccc12 | inconclusive [inhibitor, partial curve, poor fit] | – |
| COc1ccccc1N(CC(=O)NC(C)(C)C)S(=O)(=O)c1cccs1 | inconclusive [inhibitor, single point] | – |
| Cc1ccc(C(=O)Nc2nc3nc(C)cc(=O)n3[nH]2)cc1 | inactive | – |
| COc1ccc(-n2nnnc2-c2cccc(OC)c2)cc1 | active: 0.82 µM | – |
| CCOc1ccc(-c2nc(CNC(=O)NC3CCCCC3)c(C)o2)cc1 | inactive | – |
| CCCCc1c(-c2ccccc2OC)ncn1C1CCCC1 | active: 18.4 µM | – |
| Cc1nnc(SCC(=O)Nc2cccc(N)c2)n1-c1ccccc1 | inconclusive [inhibitor, single point] | – |
| CCCn1c(=N)n(CC(O)COc2cccc(C)c2)c2ccccc21 (stereo not drawn) | active: 16.4 µM | – |
| CCN(CC)CCNc1ncnc2c1cnn2-c1cc(Cl)ccc1C | inconclusive [inhibitor, partial curve] | – |
| COCOCCn1cc(CN2CCS(=O)(=O)N(Cc3ccc(-c4ccc(F)nc4)cc3)C(CC(C)C)C2=O)nn1 (stereo not drawn) | inconclusive [inhibitor, single point] | – |
| CCOc1ccc2nc(NC(=O)CSc3nc4cccnc4n3C)sc2c1 | active: 8.2 µM | – |
| CCOC(=O)C1CCCN(C(=O)Cn2nc(Cc3cccnc3)c3ccccc3c2=O)C1 (stereo not drawn) | inactive | – |
| Cc1ccc(/C=N/NC(=O)c2n[nH]c3c2CCCC3)cc1 | active: 0.82 µM | – |
| CCc1ccccc1N1CCN(S(=O)(=O)c2ccc(F)c(C)c2)CC1 | inconclusive [inhibitor, single point] | – |
| N=C1C(c2nc3ccccc3c(=O)[nH]2)=C(O)CN1CCc1ccccc1 | active: 2.59 µM | – |
| COc1ccc(N2CCN(C(=O)COc3ccc(S(=O)(=O)N4CCOCC4)cc3C)CC2)cc1 | inconclusive [inhibitor, single point] | – |
| O=C(CN1CCc2ccccc21)NC(=O)NC1CCCCC1 | inconclusive [inhibitor, single point] | – |
| CCN(CC)C1Oc2cc3c(cc2C(c2cc(OC)c(OC)c(OC)c2)C1C)OCO3 (stereo not drawn) | active: 2.31 µM | – |
| COc1cccc(CNC(=O)CSc2nc(=O)[nH]c3c2CCC3)c1 | inactive | – |
| COCC(C)n1c(C)cc(C(=O)CSc2ccc(NC(C)=O)cc2)c1C (stereo not drawn) | inconclusive [inhibitor, single point] | – |
| O=C(N/N=C/C=C\c1ccccc1[N+](=O)[O-])c1cc(-c2ccccc2)nc2ccccc12 | active: 23.1 µM | – |
| Cc1ccc(-c2csc(N(CCc3ccccc3)C(=O)COc3ccccc3)n2)cc1 | inconclusive [inhibitor, single point] | – |
